Source: the RNAGym collection of RNA variant scans (doi:10.7554/elife.90254)
The source gives no read counts; variants with many changes may rest on few reads.

B1: LINE1-mini (parent)
chain: GGCAGAGCUCAACACAGCGUGGCAAAGUGGCUGUGGCUAGACUGCC

Variants of: B1
Assay: self-cleavage, relative activity (ratio to wild type); higher = more cleavage; in vitro, sequencing; the parent is a self-cleaving ribozyme

Variant | self-cleavage
UGCAUAGCUCAACACAGCGUCGCAAAGUGGCUGUGGCUAACCUGCC | 0.04
UGCAUAGCUCAACACAGCGUGGCAAAAUGGCUGUGGCCAGAGUGCC | 0.13
UGCAUAGCUCAACACAGCGUGGCAAGGUGGCUGUGGCUAGACUACC | 0.02
UCCAGAGCUCAUCUCAGCGUGGCAAAGUGUCUGUGGCUUGACUGCC | 0.07
UGCAUAGCUCCACACAGCGUCGCAAAGUGGCUGUGGCUAGACUGCC | 0.01
UUCAGUGCUCAACACAGCGUGGCAAAGUGGCUGUGACCCGACUGCC | 0.06
UGCAUAGAUCAACACAGCCUGGCAAAGUGGCUGUGGCUAAACUGCC | 0.03
UGCAUAGCUCAACACAGCGUGGCAAAGUGGCUGUGUCUAGCCUGCA | 0.03
UGCAUAGCUCAACACAGGGUGUCAAAGUGGCUGUAGCUAGACUGCC | 0.04
UGCAGACCUCAUUACAGCGUGGCAACGUGGCUGUGGCUAGACUGCC | 0.42
UGCACAGCUCAACAUAGCGUGGCAAAGUGGCUGUCGCUAGACUGCC | 0.01
UUCAGAGCUCAACACAGCGUGGCAAAGUGGCUGUGGGUAGGCUGCG | 0
UGCAUAGCUCAACACAGCGUGGCAAAGUGGCUGUGGCUGGACUGCC | 0.08
UGCAGAACUCAACACAGCGUUGCAAAAUGGCUGUGGCUAAACUGCC | 0.01
UGCAGACCACAACACUGCGUGGCAAAGAGGCUGUGGCUAGAUUGCC | 0.04
UGCAGACCUCAAAACAGCGAGGCAAACUGGCUGUGGCUAGACUGCG | 0.02
UACAGAGCUUAACACAGCGUGGCAAAGUGGCUGUGCCUAGACUGCC | 0.02
UGCAGAGCUCAACACACCGUGGCACAGUGGCUGUGGCUAGACUGCC | 0.08
UGCACAGCUCAACUCAGUGUGGUAAUAUGGCCGUGGCUAGAGUGCC | 0.02
UGCAGACCUCAACACAGCGUGGCAAAGUGGCUGUGGUUCGACUUCC | 0.16
UGCAAAGCUCAACACAGCGUUGCAAAGUGGCUGUGGCUAGACUGCC | 0.02
UUCAGAGCUCAACGCAGCGUGGCAAAGCGGCUGUGGCUAGACUGCU | 0.02
UCCAGAGCUCAAUACAGCGUGGCAAAGUGGCUGUGGCUAGACUGCC | 0.04

Variant | self-cleavage
UGCAGAACUCAACACAGCGUGUCACAAUGGCUGAGGCUAGAUUGCC | 0.04
UGCACAGCUCCACAAAGCAUGGCAAAGUGUCUGUGGCUAGACUGCC | 0.01
UCCAGAGCUCAACAUAGCCUGGCGAAGUAGCUGUGGCUAGACUGGC | 0.05
UGCAUAGCUCAACCCAGCGUGGCAAAGUGGCUGUGGCUAGACUGCC | 0.06
UGCACAGCUAAACACAGCGUGGCAAAGAGGCUGUGGCUAGACUGCC | 0.01
UUCAGAGCAGAACACAGCGUGGGAAAGUGGUUGUGGCUAGACUGCU | 0.01
UGCACAGCUCAAUACAGCGUGGCAAAGUGGCUGUGGCUAGACUGCC | 0.04
UCCAGAGCUCAACACAGCGUGGCAAACUGGCUGUGGUUGGACUGCC | 0.01
UCCAGAGCACAACACAGCGUCGCAAAGUGGCUCUGGCUAGACUGCC | 0.01
UGCAGAUCUCUACACAGCGGGGCGAACUGGCUGUGGCUAUACUGCC | 0
UGCACAGGUCAACACAGCGUGGCAAAGUGGCUGGGGCUAGACUGCC | 0.04
UUUAGAGCUCAACACAGCGUGGCAAAGUGGCUGUGGCUAGACUGCC | 0.34
UCCAGAGCUCAUCACAGCGUGGCAAAGUGGCUGUGGCUAGACUGCC | 0.01
UGCAGAACUCAACACAGCGUGGCAAAGUGGCUUUGGCUAGAUUGCC | 0.2
UUCAGAGCUCAACACAGCGGGGCAAAGUGGCUGUGGGUAGAGUGCC | 0
UGCAGAUCUCAACACAGGGUGGCGAAGUGGCUGUGGCUAGACUGCC | 0.04
UGCAGAGCUCAACACAGCGUGGCAAAGUGGCUGUGGUUAAACUGCC | 0.01
UGCAAAGCUCAAUACAGCGUGGCAAAGUGGCUGUGGCUAGACUUAC | 0.04
UACAUAGCUAAACACAGCGUGGCAAAGUGGCUGUGGCUAGACUGCC | 0.03
UGCAGAGCUCAACACAGCGUGGCAAAGUGGCUGUGGGUAGACUACC | 0.2
UGCAGACCUGGGCACAGCGUGGCAGAGUGGGUGUGGCUAGACUGCC | 0.01
UCCAGAGCUCAACACAGCGUGGCAAAGUGGCCGUGGCUAGACUGCC | 0.03
UCCAGAGCCCAACACAGCGUGGCAAAGUGGCUGUGGCUAGACUGCC | 0.02

Variant | self-cleavage
UGCAUAGCUCAACUCAGCGUUGCAAAGGGGCUGUGGCUAGACUGCC | 0
UACAGAGCUCAACACAGCGUGUGGAAGUGGCUGUGGCUAGACUCCC | 0.15
UGCAGAGCUCAACACAGCGUGGCAAAGUGGCUGUGGAGAGGCUGCC | 0
UGCAGAGCUCAACACAACGUGGCAAAGUGGCUGUUGCUAGAAUACC | 0.01
UGCAGAACUCAACACAGCGUGGCAAAGUGGCUGUGGCUAGAAUGCC | 0.35
UGCAAAGCUCAACCCAGCGUGGCAAAGUGGCUGUGGCGAGACUGAC | 0.03
UGCAAAGUGCAACUCAGCGUGACAAAGUGGCUGUGGCUAGACUGCA | 0.07
UCCAGAGGUCAACACAGCGUGGCAAAGUGGCUGUGGAUAGACUGCC | 0.01
UGCAGAACUCAACACAGCGUGGCAAAGUGGCUGUGGCUAGAUUGAC | 0.07
UACUGCGCUCAACACAGCGUGGAAAAGUGGCUGUGGCUAGACUGCC | 0.02
UGCACAGCUCAACACAGCGUGGCAAAGUGAUUGUGGCUAGACUGCC | 0.04
UUCAGAGCUCACCACAGCGUGGCAAAGUGGCUGUGGCUAGACUGUC | 0
UGCAGAGCUCAACACAACGUGGCAAAGUGACUGUGGCUAGACUGCC | 0.06
UGCAUAGCUCAACACAGCGUGGCAAAGUGGCUGUGGCCAGACUGCC | 0.02
UACAAAGCUCAACACAGCGUGGCAAAGUGGCUGUGACUACACUGCC | 0.08
UGCAGACCUCAACACAGCGUGGCAAAGUGGCUAUGGCUAGACUCCC | 0.06
UGCAAAGCUCAACACAGUGUGGAAAAGUGGCUGUGGCUAGACUGCC | 0.06
UCCAGAGCUCAACACAGCGUGGCAAAGUGAAUGUGGCUAGACUGCC | 0.02
UUAAGAGCUCAACACAGCGUGUCAAAGUGGCUGUGGCUAGACUACC | 1
UACAGAGCUCAACACAGCGUGGCAAAGUGGUUGUGGCUAGACUGCC | 0.03
UACAGAGCUCAACACAGCGUGGCAAAGUGGCUGUGGAUAGACUGCC | 0.07
UGCAGACCUCAACACAGCGUGGCAAAGUGGCUCUGGCUAGACUGCC | 0.07
UGCAAACCUCAACACAACGUGGCAAAGUGGACGUGGCUAGUCUGCC | 0.06

Variant | self-cleavage
UGCAAAGCUCAGCACAGCGUGGCACAGUGGCUGUGGCUAGACUCCC | 0.14
UGCAUAGCUCAACACAGCGUGGCAAAGUGGCUGUGUCUAGACUGCC | 0.07
UGCAGAACUCAACACAGCGUGACUAAGUAGCUGUGGCUAGACUACC | 0.04
UGCAGAUGUCAACACAGCGUGGCAAAGUGGCUGUGGCUAGACUGCC | 0.04
UGCAGAGCUCAACACAACGUUGCAAAGUGGCUGUGGCUAGACUGCC | 0.58
UGCAUAGCUAAACACAGCGUGGAAAAGUGGCUGUGGCUAGACUGGC | 0.03
UGCAGACCUCAACAUAGGGUGGCAAAGUGGCUGUGGCUAGACUGCC | 0.02
UGCAAAGCUCACCACAGCGUGGCAAAGUGUCUGUGGCUAGACUGCC | 0.04
UGCAUCGCUCAACACAGCGUGGCAAAGUGGCUGUGGCUAGACUGCC | 0.07
UACAGAGCUCAACACAGCGUGGUAAAGUGGCUGUGUCUAGACUUCC | 0.12
UCCAGAGCUCAACACAGCGUGGCAAAGUGGCUCUGCCUAAACUGCC | 0.02
UGCAUAGCUCAACACAGCGUGGCGAAGUGGCUGUGGCUUGACUGCC | 0.01
UGCAGACCUCAACGCAGCGUGGCGAAGUGCCUGUGGAUAGAAUGCA | 0.03
UUCAGAGCUCAACACAGCGUGGCAAAGUGGAUGUGGCUAGACUGCC | 0.02
UGCAGAUGUCAACACAGCGUGGCAAAGUGGCUGUGGCUGGACUGCC | 0.19
UUCAGAGCUAAACACAGCGUUGCAACGUGGCUGUGGCUAGACUGCC | 0.01
UGCAAAGCUCAACACAGCGAGGCAAGGUGGCUGUGGCUAGACUGCC | 0.09
UGCAUAGCUCAACACAGCGUGGCAAAGUGGCUGUGGCUAGACUGGC | 0.05
UGCAAAGCUCAACACACCUUGGCAAAGUUGCUGUGGCUAGACUGCC | 0.08
UACAGAGCUCAACACAGCGUGGCAAGGUGGCUGUGGCUAGACUGCC | 0.18
UGCAUAGCUCAACACAGCGUGGCAAAGUGGCUGCGGCCAGAAUGCC | 0.02
UGCAUAGCUCCACACAGCGUGGCAAAGUGGCUGAGGCUAGACUGUC | 0.01
UUCAGAGCUCAACACACCGUGGCAGAGUGGCAGUGGCUAGAUUGCC | 0

Variant | self-cleavage
UGCAGAGCUCAACACAGCGUGGCAAAGUGGAUGUGCCAAGACUGCC | 0.01
UGCAUAGCUCAACACAGCGUGGCAACGUGGCUGUGGCUAGACUGCC | 0.04
UGCAGAGCUCAACACAGCGUGGCAAAGUGGCUGUGGGUAGAAUGCC | 0
UGCAGAUUUCAACACAGCGUGGCAAAGUAGCUGUGGCUAGACUGCC | 0.02
UCCAGAGAUCAAAACAUCGUGGCAAAGUGACUGUGGAUAGACUGCC | 0.01
UGCAUAGCUCAACACAGCGUGGGAAAGUGGCCGUGGCUAGAAUAUU | 0.01
UACAGAGCUCCACACAGCGUGGCAAUGUGGCAGUGGCUAGACUGCG | 0
UGCAUAGCUUAACACAACGUGGCAAAGUGGCUGUGGCUAGACUGCC | 0.05
UGCAUAGCUCAACACAGCGUGGCAAAGUGGCUGUGGCUAGACUACC | 0.03
UGCAGAACUCAACACAGCGUGGCAAAGUGGCUGUGGCUACACCGCC | 0.01
UGCAUAGCUCAACACAGCGUGGCAAAGUGGCUGGGGCUAGACUGCC | 0.03
UUCAGAGCUCAACACAGCGUGGCGAAGUGGCUGCGGCUAGACUGCC | 0.02
UGCAAAGCUUAACACAGCGUGGCAAAGUGGCUGUGGCUAGACUGCC | 0.05
UACAGUCCUCAAUACAGCGUGGCAAAGUGGCUGUGGCUAGACUGCC | 0.15
UGCACAGCUCAACACAGCGUGGCAAAGUGGCUGUUGCUAGACUGCC | 0.03
UCCAGAGCUCAACGCAGCGCGGCAAAGUGGUUGUGGCUAGACUGCC | 0.03
UGCAUAGCUCUACACAGCGUGGCAAAGUGGCUGUGGCUAGACUGCC | 0.02
UGCAUAGCUCCACACAGCGUGGCAAAGUGGCUGUGGCUAGACUGCC | 0.07
UGCAGAACUCAACACAGCGUGGCAAAGUGGCUGUGGUCAGACUGCC | 0.11
UGCAGAGCUCAACACAACGGGCCAAAGUGGCCGUGGCUAGACUGCC | 0.03
